Results from article PMC12136788.
The other results are listed elsewhere or left out.

B1: chrX:23682378:23682503:+|CDS|ENSG00000123131|unk|FALSE|unique (ssRNA)
RNA: GGGAGUUCUACAGUCCGACGAUCUUCAUUAUUGAUGACAAAGGAAUCCUAAGACAAAUUACUCUGAAUGAUCUUCCUGUGGGUAGAUCAGUGGAUGAGACACUACGUUUGGUUCAAGCAUUCCAGUACACUGACAAACACGGACAACAGAGGAUUGAGCAUCA
B2: chr16:89696356:89697333:-|three_prime_utr|ENSG00000158792|control|control|control (ssRNA)
RNA: GGGAGUUCUACAGUCCGACGAUCAGGAGCCUUUCCACAUUUCCCCACCCUCGGAACCCAGACGCAUGCCCACAUGUGCUGGGUAGAGGGGUCCAGCCUGUUCCAGCCAGUGCCUGAACCUGUCCCUGAGAAGGACCCUGUGCCCAACAGAGGAUUGAGCAUCA
B3: chr8:97725557:97725573:+|3pUTR|ENSG00000147649|msi1_unk|total|mutant (ssRNA)
RNA: GGGAGUUCUACAGUCCGACGAUCGUUGACUUUAAAAAUGAAAUCAUUCACAAACUUUUGGUAUAUGAUGGAGAAUGAAAAACCCGAGUCAGACAGCUUUAAUUGACAUUGUCAACACCUCCAGUUAUCAGGAAUACAUUUUUUCAACAGAGGAUUGAGCAUCA
B4: ENSG00000107863:be:win_451|CDS|ENSG00000107863|bound_else_gene|NA|bound_elsewhere_windowed (ssRNA)
RNA: GGGAGUUCUACAGUCCGACGAUCUUGGAACUUAGUGUUAUGCCAAAAGAUGAAGACAUUCUCCAAGUGCUACAGUUUACAAAGGAUGUCACAGCACUGGCAUAUUCUCAAGAUGCCUACCUGAAAGGCAACGAAGCUUAUAGCCAACAGAGGAUUGAGCAUCA
B5: chr12:85264020:85264122:+|3pUTR|ENSG00000133640|unk|total|mutant (ssRNA)
RNA: GGGAGUUCUACAGUCCGACGAUCCACCGUAUUUCAGUUACUUUCCACAGCUGUGUUGCUCAAUAACCGCAUCCAGUGAACUUCCGUAUUUUUUUGUUUUUCCUGUAUUUUAUUAAAAUAUUUCAUCCCGAGAUAACUGAAGUGCAACAGAGGAUUGAGCAUCA
B6: chr8:25429562:25429664:-|3pUTR|ENSG00000104756|unk|FALSE|unique (ssRNA)
RNA: GGGAGUUCUACAGUCCGACGAUCAGAAAAGCACUCAUUUAAUAGAUGUAGGGAAACUAGAUAUUGCUGCCUUUUGAAUGGGGUAGGGGGGUUUACCUGGUUUUAUGACCAGGCAUAGUAUCUAUUAUAUUUGCUUUUAAAUAGCAACAGAGGAUUGAGCAUCA

What follows are binders tested against MSI1 full-length (mouse, UniProt Q61474 1-362) (assay: nsRBNS (natural sequence RNA bind-n-seq); RBNS binding buffer (assumed for nsRBNS): 25 mM Tris pH 7.5, 150 mM KCl, 3 mM MgCl2, 0.01% Triton X-100, 500 ug/ml BSA, 20 U/ml SUPERase-In, 4 C; UNK is unkempt and MSI1 is Musashi-1; names of the RNAs are library labels; protein concentration not given here; high values mean tight binding).
Chain of UniProt Q61474 (Q61474 whole entry): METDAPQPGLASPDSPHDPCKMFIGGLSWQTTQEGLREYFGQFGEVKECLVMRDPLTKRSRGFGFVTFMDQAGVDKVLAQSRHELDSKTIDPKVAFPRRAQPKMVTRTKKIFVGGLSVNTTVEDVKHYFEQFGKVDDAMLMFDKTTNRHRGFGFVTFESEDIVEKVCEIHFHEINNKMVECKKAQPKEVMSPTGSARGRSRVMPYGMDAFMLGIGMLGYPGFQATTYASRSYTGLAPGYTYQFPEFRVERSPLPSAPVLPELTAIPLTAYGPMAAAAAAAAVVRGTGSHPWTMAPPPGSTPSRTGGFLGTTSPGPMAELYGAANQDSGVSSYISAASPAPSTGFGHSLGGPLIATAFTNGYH

Row | Binder | binding signal [enrichment R]
1 | B1 | 0.246
2 | B2 | 0.465
3 | B3 | 0.572
4 | B4 | 0.457
5 | B5 | 2.61
6 | B6 | 2.16
